Reference: ChEMBL document CHEMBL4888484, “Replenishing the malaria drug discovery pipeline: Screening and hit evaluation of the MMV Hit Generation Library 1 (HGL1) against asexual blood stage Plasmodium falciparum ,using a nano luciferase reporter read-out” (2022)
The campaign covered roughly 150,000 compounds. About 540 (0.36%) showed an effect of 50% or more. This is one part of the list.

tested on: Plasmodium falciparum; test: Primary screen in NF54 nanoGlo assay, in single point, at 2uM, 72h; a lower Z score goes with more inhibition; type: functional, Erythrocyte; settings: timepoint 72 hour

SMILES	% Inhibition	Z score
CC(=O)N1CCC[C@@](NCCn2cccn2)(c2nnnn2CCC(C)C)C1	-16%	2.11
CNc1cc(C(=O)N2CCC3(CC2)CC(=O)N(CC=C(C)C)C3)ccn1	-18%	1.73
CC(C)(CNC(=O)c1c(F)cc(Br)cc1F)C(N)=O	-3%	0.33
COc1nccc(C(=O)N2CCN(C3CC3)c3cc(F)ccc32)n1	-6%	1.07
CS(=O)(=O)CC1(CNC(=O)c2ccc(Br)cc2)CC1	36%	-0.97
Cc1ncc(C(=O)N(c2ccc(Br)cn2)C(C)C)c(C)n1	-7%	1.45
CN(C)c1n[nH]c(NCc2c(Cl)cnn2C)n1	-12%	1.24
O=c1[nH]c(N2CCC(O)CC2)nc2c1Cc1ccccc1OC2	-1%	0.17
CCn1nccc1C(=O)N1CCC(c2noc(COCc3ccccc3)n2)CC1	21%	-2.74
CC(=O)NCCCS(=O)(=O)c1ccccc1F	-2%	0.33
C[C@@H](CNc1nc(-c2ccccc2)nc2nc(-c3ccc(Cl)cc3)oc12)N1CCCCC1	79%	-10.9
C=C(C)C[C@H](C)C(=O)N(Cc1ncc[nH]1)c1cncc(C)c1	-4%	0.64
Cc1nnc(-c2ccc(C(F)(F)F)cc2CO)s1	-6%	0.95
Cc1nc(NC(=O)c2cnn(CC(C)C)c2)n[nH]1	8%	-0.87
COc1ccc(-c2ccc(N3CCN(C(=O)CN(Cc4ccc(F)cc4)C(=O)C(C)C)CC3)nn2)cc1OC	-11%	0.99
CN(CC(=O)N(C)C)Cc1nc(-c2cccs2)no1	-18%	1.52
COC[C@]1(O)CCOC2(CCN(Cc3cccc(F)c3F)CC2)C1	-12%	1.73
O=C(c1nn(Cc2ccc(F)cc2)c2c1COCC2)N1CCC(Cc2ccccc2)CC1	-12%	1.54
O=S(=O)(Nc1ccc2sncc2c1)c1cccs1	-2%	0.19
CN(C)C(=O)c1nc2ccc(Cl)cn2c1CN1CCC[C@H](O)C1	-18%	1.69
COc1ccccc1C(=O)N1CCN(c2nc(C)nc(C)c2Cc2cc(C)ccc2C)CC1	-4%	0.62
Cc1cccc(NC(=O)N2CCC(N3CCN(Cc4ccccc4)C(=O)C3=O)CC2)c1C	-16%	1.43
CCN1CCN(C(=O)c2n[nH]c3c2CN(C(=O)c2cccc(C)c2)CC3)CC1	-10%	1.4
